Measurements: publication PMC4336329 (PLoS ONE, 2015)
The whole screen tested about 310,000 compounds, of which about 2,200 (0.71%) showed an effect of 50% or more. The effect is printed as a negative number. Some of the results follow.

molecular target: human ether-à-go-go-related gene (hERG) potassium channel (human, UniProt Q12809); experiment: primary screen, population patch clamp on CHO cells stably expressing hERG
Sequence (Q12809 whole entry, looked up): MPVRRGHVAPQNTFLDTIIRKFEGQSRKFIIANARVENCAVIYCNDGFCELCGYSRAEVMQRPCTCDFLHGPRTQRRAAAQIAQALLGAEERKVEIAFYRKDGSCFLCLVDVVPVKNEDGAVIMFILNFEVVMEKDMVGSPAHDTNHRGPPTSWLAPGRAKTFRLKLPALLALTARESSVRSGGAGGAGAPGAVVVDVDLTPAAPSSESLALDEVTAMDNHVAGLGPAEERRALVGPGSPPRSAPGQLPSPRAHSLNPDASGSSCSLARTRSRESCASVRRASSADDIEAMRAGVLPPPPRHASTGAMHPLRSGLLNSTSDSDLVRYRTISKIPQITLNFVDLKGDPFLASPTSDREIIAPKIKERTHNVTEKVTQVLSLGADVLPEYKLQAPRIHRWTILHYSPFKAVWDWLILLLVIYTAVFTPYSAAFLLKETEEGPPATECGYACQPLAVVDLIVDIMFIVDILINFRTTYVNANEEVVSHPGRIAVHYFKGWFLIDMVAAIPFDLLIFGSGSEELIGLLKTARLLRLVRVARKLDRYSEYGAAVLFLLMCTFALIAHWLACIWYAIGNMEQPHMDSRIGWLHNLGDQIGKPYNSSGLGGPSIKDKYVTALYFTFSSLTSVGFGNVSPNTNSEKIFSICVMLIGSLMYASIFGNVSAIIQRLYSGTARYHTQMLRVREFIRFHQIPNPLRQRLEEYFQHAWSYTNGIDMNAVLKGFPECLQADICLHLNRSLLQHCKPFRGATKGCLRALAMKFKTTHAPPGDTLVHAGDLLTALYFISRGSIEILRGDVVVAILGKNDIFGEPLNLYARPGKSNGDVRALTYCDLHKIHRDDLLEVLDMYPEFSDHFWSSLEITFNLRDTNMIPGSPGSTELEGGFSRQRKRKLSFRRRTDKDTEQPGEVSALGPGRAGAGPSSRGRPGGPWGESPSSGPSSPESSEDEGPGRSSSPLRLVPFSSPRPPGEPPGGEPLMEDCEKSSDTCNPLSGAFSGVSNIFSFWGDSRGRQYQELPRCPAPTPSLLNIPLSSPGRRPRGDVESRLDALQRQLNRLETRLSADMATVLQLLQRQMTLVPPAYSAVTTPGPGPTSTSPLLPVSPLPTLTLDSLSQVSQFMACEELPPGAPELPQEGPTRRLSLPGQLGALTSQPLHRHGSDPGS

Compound | hERG current change (%, negative = inhibition) at 1uM [%]
Cc1ccc(NC(=O)c2cc(NC(=O)c3ccco3)ccc2N2CCOCC2)cc1 | 13.7
OCC[C@H]1C[C@H](O)[C@@H](O)[C@]2(OCCc3ccccc32)O1 | 9.61
O=c1c(Cc2ccc(Cl)cc2)c(O)ccn1Cc1ccccc1 | 5.62
CCC(O)C1CCN(Cc2cn(Cc3ccccc3)nc2-c2cc3ccccc3o2)CC1 (centres unmarked) | -14.3
O=c1c2ccccc2nc(SCc2cccc(F)c2)n1Cc1ccco1 | 1.81
O=C(CN1C(=O)NC2(CCCCCC2)C1=O)Nc1ccc(Br)cc1Br | -3.07
O=C(NC(CC(=O)N1CCN(c2ccc([N+](=O)[O-])cc2)CC1)c1ccccc1)c1ccccc1Cl (centres unmarked) | -69
CC(C)Cc1ccc(CN2CCCC(NC(=O)c3cnc4ccccn4c3=O)C2)cc1 (centres unmarked) | -28
O=C(O)c1ccc(S(=O)(=O)NCc2cccnc2)cc1 | 15.1
c1ccc(-c2cc3c(N4CCCCC4)ncnc3s2)cc1 | 8.64
COc1ccc(C2C(C(=O)NCc3cccnc3)c3ccccc3C(=O)N2C)cc1OC (centres unmarked) | 8.59
O=C(NC1CCCCC1)C(c1ccc(F)cc1)N(CCCN1CCOCC1)C(=O)c1ccc(CN2CCOCC2)o1 (centres unmarked) | 10.3
O=C(O)C1=C[C@@H](c2csc3ccccc23)C[C@@H](OCc2ccc(CO)cc2)O1 | 15.6
O=C(NNC(=O)C1CCN(c2ncccn2)CC1)c1ccc(F)cc1 | 20.6
CCn1ccnc1CN1CCCC(C(=O)c2cc(F)ccc2OC)C1 (centres unmarked) | -3.46
COc1ccc(CSc2nnc(C)n2N)cc1 | 4.22
COc1ccccc1CC(=O)NCCc1ccccc1 | 12.8
CCC(CO)Nc1nc(CN2CCCCC2)nc2scc(-c3ccccc3)c12 (centres unmarked) | -10.9
O=[N+]([O-])c1ccc(S(=O)(=O)N(CC(O)CN2CCCCC2)c2ccccc2)cc1 (centres unmarked) | -80.4

Compound | hERG current change (%, negative = inhibition) at 1uM [%]
Cc1cc(C)cc(C(=O)Nc2cccnc2Cl)c1 | 6.12
O=c1[nH]c(=O)n(Cc2ccc(F)cc2)c(O)c1C=NCCN1CCCCC1 | 0.929
Cc1cc(NC(=O)CSc2nc(=O)n(CCN(C)C)c3c2CCCC3)no1 | 8.04
CCC(=O)c1ccc(OCC(=O)OCC(=O)NCC2CCCO2)cc1 (centres unmarked) | 12.2
CCc1ccc(N2C(=O)C3CCCN3C2=S)cc1 (centres unmarked) | 14.2
CC(C)c1ccc(NC(=S)N2CCCC2)cc1 | 9.07
COc1ccc(NC(=O)CC(NCc2ccccn2)C(=O)O)cc1 (centres unmarked) | 9.59
Cc1cc(C(=O)NC2CC(C)(C)Cc3c2cnn3-c2cccc(F)c2)n(C)n1 (centres unmarked) | 3.12
CS(=O)(=O)c1ccc(-c2nnn(CC(=O)N3CCCCC3)n2)cc1 | 14.4
CN(C(=O)c1cnc2n(c1=O)CCS2)C1CCCCC1 | 15.2
CCOC(=O)C1CCCN(c2c(NCC3CCCO3)c(=O)c2=O)C1 (centres unmarked) | 15.4
CCCC(C)n1[nH]c(=O)c2c1NC(=O)CSC2c1ccc(OC)c(OC)c1 (centres unmarked) | 23.3
COc1cc(C#Cc2c(-c3cncn3C)n(C)c3ccc(-c4ccc(OC)c(OC)c4)cc23)cc(OC)c1 | 9.82
Cc1ccc(CCC(=O)Nc2ccc([N+](=O)[O-])cc2)o1 | 15.8
CC(=O)Nc1ccc(N2C(C(C)=O)=NN(c3ccc(Cl)cc3)C2c2sccc2C)cc1 (centres unmarked) | 9.38
COc1ccc(C2=Nn3c(nnc3-c3ccccc3)SC2)cc1OC | 16.4
Cc1ccc2c(c1)C1CN(C)CCC1N2C(=O)c1ccco1 (centres unmarked) | 3.6
Cc1ccc(/C=N/NC(=O)Cn2cncn2)cc1 | 17.2
O=C(CSc1n[nH]c(-c2ccccc2)n1)c1ccccc1 | 12.4

Compound | hERG current change (%, negative = inhibition) at 1uM [%]
Cc1nc([N+](=O)[O-])c(C(=O)OCc2ccccc2)n1C | 11.6
CCCC(NC(=O)Cc1c(C)c2cc3c(C)c(C)oc3c(C)c2oc1=O)C(=O)N[C@@H](Cc1ccccc1)C(=O)O (some centres unmarked) | 0.847
CCOC(=O)CNC(=O)CN1C(=O)CCS(=O)(=O)c2ccccc21 | 11.8
CC1=NN(c2ccccc2)C(=O)/C1=C\c1sccc1C | 1.72
O=C(COc1ccc2c(c1)C(=O)CC1(CCCCC1)O2)NCc1ccccc1 | 1.9
COc1cc(/C=C/C(=O)c2ccccc2O)cc(OC)c1OC | 12.3
CCOC(=O)N1CCC(N2Cc3cccc(C(=O)NCc4ccccc4OC)c3C2=O)CC1 | -25.1
CCn1c(=O)cc(OCC(=O)Nc2ccccc2N2CCN(C)CC2)c2ccccc21 | -11.4
Nn1cc(-c2ccccc2)nc1SCC(=O)NCCc1ccccc1 | 4.46
CCCCc1cc(=O)oc2cc(C)cc(OCC(=O)NCc3ccccn3)c12 | -10.4
COc1ccc(/C=C/C(=O)c2c(O)cc(C)oc2=O)c(OC)c1 | 2.14
N#Cc1cccc(CSc2ncnc(N)n2)c1 | 19.4
O=C(CC1SCCNC1=O)Nc1ccccc1Cl (centres unmarked) | 7.37
N=C1C(c2nc3ccccc3s2)=C(O)CN1Cc1ccco1 | 8.72
NC(=O)c1ccc[n+](Cc2ccccc2)c1.[I-] | 4.8
Cc1ccc(NS(=O)(=O)c2ccc(Cl)c(C(=O)Nc3ccccc3-c3nc4ccccc4[nH]3)c2)cc1C | 18
CCN(Cc1ccccc1)S(=O)(=O)CCNC(=O)c1ccc(OC)cc1 | 10.4
O=C(N/N=C/c1ccccc1C(=O)O)c1ccc(COc2cccc3cccnc23)cc1 | 3.16
